Laboratory results taken from PubChem BioAssay AID588342 (National Center for Advancing Translational Sciences (NCATS), 2011).
The whole screen tested about 360,000 compounds, of which about 25,000 (6.9%) were called active. The inconclusive results got no clear call from the source; some entries with a clear call stand among them for comparison. The call rests on the fitted dose curve; in most records, active means well fitted inhibition curve with a large enough effect; inconclusive means small, poorly fitted or top-dose-only effect; inactive means flat fitted curve, though single readings scatter. Potencies beside an inconclusive call are fits to weak or partial responses and may not hold up.

biological target: Luciferin 4-monooxygenase (Photinus pyralis) (UniProt P08659); test: qHTS profiling assay for firefly luciferase inhibitor/activator using purifed enzyme and Km concentrations of substrates (counterscreen for miR-21 project); conditions: purified FLuc, luminescence inhibition; series mostly up to 57.5 µM; activity change, negative = inhibition: at the top concentration; further: nearly all actives have a fitted effect of over 55% in size;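 on activity change, negative = inhibition: plate controls were vehicle for no effect and reference inhibitor for full effect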
Outline: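 Purified P. pyralis luciferase (10nM final) with 10uM D-luciferin and 10uM ATP (Km levels) in 50mM Tris acetate pH 7.5, 10mM Mg acetate, 0.01% Tween-20, 0.05% BSA; qHTS 6-point titration, ~60 µM downward; luminescence read.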
Potency means the concentration at half of the fitted maximal effect; tags describe the fitted curve by direction and shape.

Chain of UniProt P08659 (P08659 whole entry, looked up): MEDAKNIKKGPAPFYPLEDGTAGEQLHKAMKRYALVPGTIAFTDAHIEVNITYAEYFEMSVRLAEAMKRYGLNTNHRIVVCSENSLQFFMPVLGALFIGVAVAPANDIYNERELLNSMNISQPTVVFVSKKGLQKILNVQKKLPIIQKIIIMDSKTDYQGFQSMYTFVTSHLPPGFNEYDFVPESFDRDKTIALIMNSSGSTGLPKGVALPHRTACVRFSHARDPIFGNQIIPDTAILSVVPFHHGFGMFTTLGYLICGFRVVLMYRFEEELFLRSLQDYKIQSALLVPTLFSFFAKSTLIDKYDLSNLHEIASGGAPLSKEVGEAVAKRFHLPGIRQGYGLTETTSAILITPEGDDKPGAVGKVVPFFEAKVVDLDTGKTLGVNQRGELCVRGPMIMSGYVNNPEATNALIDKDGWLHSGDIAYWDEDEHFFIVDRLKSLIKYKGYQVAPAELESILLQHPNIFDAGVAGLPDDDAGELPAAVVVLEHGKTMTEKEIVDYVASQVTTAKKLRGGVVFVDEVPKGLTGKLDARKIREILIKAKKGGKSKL

Row | SMILES | Potency | activity change, negative = inhibition
1 | Cc1nc2ccccc2nc(C)c1=NO | inconclusive: 30.1 µM [inhibitor, single point] | 
2 | CCN(C(=O)COC(=O)c1ccc2[nH]c3c(c2c1)CCCC3)C1CCS(=O)(=O)C1 (configuration not stated) | inconclusive: 37.9 µM [inhibitor, partial curve, poor fit] | 
3 | Oc1ccc(N=Nc2ccccc2-c2nn[nH]n2)c(O)c1 | inconclusive: 21.3 µM [inhibitor, partial curve, poor fit] | 
4 | CCC(C)(C)NC(=O)c1ccc(S(=O)(=O)N2CCCCCC2)cc1 |  | inactive: 1.31%
5 | COC(=O)C(=C/C=C/c1ccco1)C(=O)OC | inconclusive: 37.9 µM [inhibitor, partial curve, poor fit] | 
6 | O=C(CSc1ncnc2sc3c(c12)CCCCC3)NCc1ccco1 | inconclusive: 37.9 µM [inhibitor, single point] | 
7 | CCn1cc(S(=O)(=O)CC(=O)Nc2ccc3c(c2)OCCO3)c2ccccc21 | inconclusive: 21.3 µM [inhibitor, partial curve, poor fit] | 
8 | Cc1[nH]c2ccccc2c1/C=N\NC(=O)CNc1ccc2c(c1)OCO2 | active: 10.7 µM | 
9 | CC(=O)Nc1cccc2c1C(=O)N(c1ccc(C)cc1)C2=O | inconclusive: 23.9 µM [inhibitor, partial curve, poor fit] | 
10 | COc1ccc(C(=O)NNC(=O)CCC(=O)Nc2cc(C)on2)cc1 | inconclusive: 21.3 µM [inhibitor, partial curve, poor fit] | 
11 | CCN(CC)S(=O)(=O)c1cc(-c2nnc(Nc3ccc(OC)c(C(N)=O)c3)c3ccccc23)ccc1C | inconclusive: 13.5 µM [inhibitor, partial curve] | 
12 | NC1=NC(=O)/C(=C/c2cccs2)S1 | inconclusive: 26.9 µM [inhibitor, single point] | 
13 | CNS(=O)(=O)c1cccc(C(=O)OCC(=O)Nc2ccc(-c3nc4ccc(C)cc4s3)cc2)c1 | active: 4.78 µM | 
14 | Cc1ccc(NC(=O)c2cccc(N3CCCS3(=O)=O)c2)cc1 | inconclusive: 13.5 µM [inhibitor, partial curve] | 
15 | Cc1c(N=Nc2c(-c3ccc([N+](=O)[O-])cc3)[nH]n(C(N)=S)c2=O)cccc1[N+](=O)[O-] | inconclusive: 30.1 µM [inhibitor, partial curve, poor fit] | 
16 | N#CCSc1nnc(COc2ccc3ccccc3c2)o1 | inconclusive: 26.9 µM [inhibitor, single point] | 
17 | CCOc1ccc(NC(=O)N2CCC(CN3CCc4ccccc4C3)CC2)cc1 |  | inactive: 3.73%
18 | Cc1ccc(NC(=O)c2nnn(CC(=O)Nc3ccc4c(c3)OCO4)c2N)cc1C | active: 5.36 µM | 
19 | COc1ccccc1NC(=O)Cn1c(=O)n(-c2ccc(C)cc2)c(=O)c2ccc(C(=O)NCc3ccco3)cc21 |  | inactive: -2.98%
20 | Cc1c(NC(=O)c2ccc(Cl)cc2)cc(C(C)C)c(O)c1S(=O)(=O)c1ccc(Cl)cc1 | inconclusive: 6.01 µM [inhibitor, partial curve, poor fit] | 
21 | CC(=O)C1=C(C)Nc2cc(C(F)(F)F)ccc2S1 | inconclusive: 26.9 µM [inhibitor, partial curve, poor fit] | 
22 | CN(C)/C=C/C(=C\C(=O)C(F)(F)F)Nc1ccc(C(F)(F)F)cc1 |  | inactive: -0.657%
23 | CCC(C)/C(C)=N/NC(=O)c1ccc(CSc2nc3ccccc3s2)cc1 (configuration not stated) | inconclusive: 9.53 µM [inhibitor, single point] | 
24 | Cc1ccc(CNC(=O)CCSCc2ccccc2F)cc1 | inconclusive: 37.9 µM [inhibitor, partial curve, poor fit] | 

Row | SMILES | Potency | activity change, negative = inhibition
25 | CSc1ncc2c(n1)-c1cc(C)ccc1SC2 |  | inactive: -1.73%
26 | CCc1ccc(NC(=O)C(=O)c2cn(CC(=O)N3CCCCC3)c3ccccc23)cc1 | active: 9.53 µM | 
27 | O=C(Nc1nnc(-c2ccccc2)s1)c1cccc(S(=O)(=O)N2CCOCC2)c1 | inconclusive: 37.9 µM [inhibitor, single point] | 
28 | COc1ccc(/C=C\c2onc(C)c2S(=O)(=O)N2CCC(C(=O)NCCC(C)C)CC2)cc1 |  | inactive: 0.826%
29 | CC(C)(C)NC(=O)Cn1c(Cl)nc2ccccc21 |  | inactive: -10.4%
30 | COc1ccc(-c2n[nH]c3c2CN(C(=O)c2ccccc2)CC3)cc1 | inconclusive: 37.9 µM [inhibitor, partial curve, poor fit] | 
31 | O=C1ON=C(c2ccccc2)/C1=C/c1ccco1 | inconclusive: 21.3 µM [inhibitor, partial curve] | 
32 | CCS(=O)(=O)N1CCN(c2nc(-c3ccccc3)cs2)CC1 | active: 19 µM | 
33 | CC1=C(C(=O)Nc2cccc(C(=O)NCc3ccccc3C)c2)SCCO1 |  | inactive: -8.32%
34 | Cc1cc(N2CCOCC2)nc2ccccc12 | inconclusive: 23.9 µM [inhibitor, partial curve, poor fit] | 
35 | CCOc1ccc(C(c2c(O)cc(C)n(CCOC)c2=O)N2CCN(c3ccccc3F)CC2)cc1 (configuration not stated) | inconclusive: 26.9 µM [inhibitor, partial curve, poor fit] | 
36 | O=C(CSc1ccc2c(c1)OCCO2)NC(=O)Cc1ccccc1 |  | inactive: -3.6%
37 | Cc1cc(CNC(=O)c2cc(COc3ccc(F)c(F)c3)on2)nn1C | inconclusive: 2.69 µM [inhibitor, partial curve] | 
38 | CNC(=O)CN(c1ccc(Oc2ccccc2)cc1)S(=O)(=O)c1ccc(C)cc1 |  | inactive: 1.33%
39 | O=C(CSc1ccccc1)N/N=C/c1ccccc1O | inconclusive: 21.3 µM [inhibitor, partial curve, poor fit] | 
40 | Cc1cc(C)n2nc(C(=O)Nc3ccc4c(c3)CCC4)nc2n1 | active: 13.5 µM | 
41 | C[C@@](Cc1ccccc1)(C(=O)O)N1C(=O)c2ccc(C(=O)O)cc2C1=O | inconclusive: 37.9 µM [inhibitor, partial curve, poor fit] | 
42 | O=C1c2ccccc2C(=O)c2c1ccc1c(=O)n(C3CCCCC3)[nH]c21 | inconclusive: 37.9 µM [inhibitor, partial curve, poor fit] | 
43 | CCN1C(=O)c2ccccc2S(=O)c2ccc(C(=O)NCc3ccc(F)cc3)cc21 (configuration not stated) |  | inactive: 1.08%
44 | CN(C)CC(O)CN(c1ccccc1)c1ccccc1 (configuration not stated) |  | inactive: -0.176%
45 | CCOCCCn1cnc2c3cc(F)ccc3n(C)c2c1=O | inconclusive: 37.9 µM [inhibitor, partial curve, poor fit] | 
46 | COc1ccc(OC)c(CCNC(=O)CC2(CC3=NS(=O)(=O)c4ccccc4N3)CCCC2)c1 |  | inactive: -3.09%
47 | Cc1cc(NC(=O)COC(=O)C2CC(=O)N(c3ccccc3)C2)no1 (configuration not stated) |  | inactive: 0.737%
48 | N=C1S/C(=C\c2ccccc2F)C(=O)N1c1ccc(F)cc1 |  | inactive: 0.586%

Row | SMILES | Potency | activity change, negative = inhibition
49 | COc1ccc(/C=C2\SC(=S)N(CC(=O)NCCO)C2=O)cc1 | active: 9.53 µM | 
50 | O=C1c2ccccc2S(=O)(=O)N1Cc1nnc(-c2ccccc2Br)o1 | active: 21.3 µM | 
51 | Cc1ccc(S(=O)(=O)NCCC(=O)Nc2ccc(S(=O)(=O)NC(C)C)cc2)cc1 |  | inactive: 2.58%
52 | O=C(Nc1cccc2ccccc12)c1cn(-c2ccccc2)nc1-c1cccs1 | inconclusive: 6.01 µM [inhibitor, partial curve, poor fit] | 
53 | COc1cc(NC(=O)CSCc2ccc(Cl)cc2Cl)c(C(=O)O)cc1OC | inconclusive: 26.9 µM [inhibitor, partial curve, poor fit] | 
54 | COc1ccc(/C=C/C(=O)c2ccc(C)c([N+](=O)[O-])c2)cc1O | active: 4.78 µM | 
55 | CCOc1ccc(Nc2nc(NCC3CCCO3)c3ccccc3n2)cc1 (configuration not stated) | inconclusive: 30.1 µM [inhibitor, single point] | 
56 | O=S(=O)(Nc1ccc(-c2nc3cccnc3s2)cc1)c1ccccc1F | inconclusive: 21.3 µM [inhibitor, single point] | 
57 | CCCCCCOc1ccc(/C=C/C(=O)N2CCOCC2)cc1OC |  | inactive: -3.13%
58 | O=C(C1CCN(c2nnc(-n3cccc3)s2)CC1)N1CCc2ccccc2C1 |  | inactive: 1.79%
59 | Cc1ccc(Oc2c(C(F)(F)F)oc3cc(OCC(=O)NC4CCCCC4)ccc3c2=O)cc1 |  | inactive: 3.68%
60 | O=C(N/N=C/c1ccc2c(c1)OCO2)C1CC1 | inconclusive: 26.9 µM [inhibitor, single point] | 
61 | CCc1cccc(C)c1NC(=O)CSc1nc(C)cc(C)c1C(=O)Nc1ccccc1 |  | inactive: -9.07%
62 | O=C(Nc1nnc(-c2ccco2)s1)c1ccccc1 | active: 3.01 µM | 
63 | COc1ccc(C2=NN(c3ccccc3)C(c3ccc(OC)c(OC)c3)C2)cc1 (configuration not stated) | inconclusive: 21.3 µM [inhibitor, partial curve] | 
64 | N/C(=N\OC(=O)CSc1ccccc1)c1cccc([N+](=O)[O-])c1 | inconclusive: 37.9 µM [inhibitor, single point] | 
65 | O=C(CC1C(=O)NCCN1Cc1cccc(C(F)(F)F)c1)NCCc1cnccn1 (configuration not stated) |  | inactive: 1.9%
66 | O=[N+]([O-])c1cccc(CNc2ccc3c(c2)CCC3)c1 | inconclusive: 37.9 µM [inhibitor, partial curve, poor fit] | 
67 | CC(=O)N(C)c1nc(-c2ccc(Cl)cc2)cs1 | inconclusive: 5.36 µM [inhibitor, partial curve, poor fit] | 
68 | COc1ccc(/C=N\NC(=O)c2sc(N)nc2C)cc1OC | inconclusive: 21.3 µM [inhibitor, single point] | 
69 | O=C(NCCc1c[nH]c2ccccc12)c1cc2ccccc2oc1=O | active: 16.9 µM | 
70 | O=C(NCc1ccc(-c2nc3ccccc3s2)cc1)c1ccco1 | active: 6.01 µM | 
71 | O=C(NC1CC1)C1C2C3C4CC5C3C5C4C12 (configuration not stated) | inconclusive: 23.9 µM [inhibitor, partial curve, poor fit] | 
72 | CCOc1ccccc1C(=O)N1CC(=O)Nc2ccc(Cl)cc2C1c1ccccc1 (configuration not stated) |  | inactive: -12.4%
